According to patent US20240376128A1, “N-CYCLOPROPYLPYRIDO [4, 3-D] PYRIMIDIN-4-AMINE DERIVATIVES AND USES THEREOF” (Jacobio Pharmaceuticals Co., Ltd., priority 2021, published 2024):

Assays:
[1] = test system: AGS cell line (K-Ras G12D); assay: Phospho-ERK1/2(THR202/TYR204) HTRF assay; format: cell-based; conditions: Homo sapiens; AGS cells (K-Ras G12D), 2 hours incubation; read-out: p-ERK, IC50(nM) AGS
[2] = Mouse pharmacokinetic study; format: in vivo; conditions: female, Balb/c mouse, single dose 10 mg/kg, po, plasma; for AUC(0-t): read-out: AUC0-8h; for Cmax: read-out: Cmax
Procedure, shortened: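 Female Balb/c mice (n=3/group) received a single 3 mg/kg iv dose (sampled 0.083–8 h) or 10 mg/kg po (0.5–8 h). Plasma levels were measured by LC-MS/MS. Prodrugs were given po only, at a dose equal to 10 mg/kg parent, with both prodrug and parent measured.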

Row | SMILES | IC50 [1] [nM] | AUC(0-t) [2] [ng·h/mL] | Cmax [2] [ng/mL]
1 | C#Cc1c(F)ccc2cc(O)cc(-c3ncc4c(N(C)C5CC5)nc(OC[C@@]56CCCN5C[C@H](F)C6)nc4c3F)c12 [Compound 1, 4-(4-(cyclopropyl(methyl)amino)-8-fluoro-2-(((2R,7aS)-2-fluorotetrahydro-1H-pyrrolizin-7a(5H)-yl)methoxy)pyrido[4,3-d]pyrimidin-7-yl)-5-ethynyl-6-fluoronaphthalen-2-ol] | 23.8 | 3000 | 1120
2 | C#Cc1c(F)ccc2cc(O)cc(-c3ncc4c(N(CC)[C@@H]5C[C@H]5F)nc(OC[C@@]56CCCN5C[C@H](F)C6)nc4c3F)c12.O=C(O)C(F)(F)F (mixture of isomers) [Compound 6, 4-(4-(ethyl(trans-2-fluorocyclopropyl)amino)-8-fluoro-2-(((2R,7aS)-2-fluorotetrahydro-1H-pyrrolizin-7a(5H)-yl)methoxy)pyrido[4,3-d]pyrimidin-7-yl)-5-ethynyl-6-fluoronaphthalen-2-ol 2,2,2-trifluoroacetic acid] | 4.81 | 3450 | 896
3 | C=Cc1c(F)ccc2cc(O)cc(-c3ncc4c(N(C)[C@@H]5C[C@H]5F)nc(OC[C@@]56CCCN5C[C@H](F)C6)nc4c3F)c12.O=C(O)C(F)(F)F (mixture of isomers) [Compound 16, 6-fluoro-4-(8-fluoro-4-((trans-2-fluorocyclopropyl)(methyl)amino)-2-(((2R,7aS)-2-fluorotetrahydro-1H-pyrrolizin-7a(5H)-yl)methoxy)pyrido[4,3-d]pyrimidin-7-yl)-5-vinylnaphthalen-2-ol 2,2,2-trifluoroacetic acid] | 28.1 | 696 | 165
4 | C#Cc1c(F)ccc2cc(O)cc(-c3ncc4c(N(C)[C@H]5C[C@@H]5F)nc(OC[C@@]56CCCN5C[C@H](F)C6)nc4c3F)c12 [Compound 3A, 5-ethynyl-6-fluoro-4-(8-fluoro-4-(((1S,2S)-2-fluorocyclopropyl)(methyl)amino)-2-(((2R,7aS)-2-fluorotetrahydro-1H-pyrrolizin-7a(5H)-yl)methoxy)pyrido[4,3-d]pyrimidin-7-yl)naphthalen-2-ol] | 4.09 | 1260 | 490
